Test results from PubChem BioAssay (NCATS).
“And” between values parts separate entries of the source, which are not always exact repeats. Identical values can stand only once. The inconclusive results got no clear call from the source; some entries with a clear call stand among them for comparison. A potency beside an inconclusive call is a rough fit, not a confirmed value. The source made the active and inactive calls. The call rests on the fitted dose curve; in most records, active means well fitted cell-killing curve with a large enough effect; inconclusive means small, poorly fitted or top-dose-only effect; inactive means no such curve, though single readings can be large or run the other way.

Experiment: qHTS of pediatric cancer cell lines to identify multiple opportunities for drug repurposing: Primary screen for SK-N-SH cells (AID 1347098); further: nearly all actives have a fitted effect of over 65% in size
Details: SK-N-SH viability, CellTiter-Glo luminescence, 48 h; series mostly up to 57 µM
Outline: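 Cells (500-1,000/well) rested 5 h, then received compounds for 48 h; metabolically active cells were measured by CellTiter-Glo luminescence. Final concentrations spanned up to 46 µM (MIPE, 11-point) or 0.59 nM-46 µM (NPC, 8-point) in primary screens, 11-point in follow-ups.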
Potency means the concentration at half of the fitted maximal effect; tags describe the fitted curve by direction and shape.

SMILES | Potency
COc1ccc(CCN(C)CCCOc2ccc(S(=O)(=O)c3[nH]c4ccccc4c3C(C)C)cc2)cc1OC | inconclusive: 24.1 µM [cytotoxic, partial curve]
CC(C)(N)C(=O)N[C@H](COCc1ccccc1)C(=O)N1CCC2(CC1)CN(S(C)(=O)=O)c1ccccc12 | active: 30.4 µM
CCN(CC)CCNC(=O)c1ccc2nc(-c3ccccc3)c(-c3ccc(CN4CCC(n5c(=O)[nH]c6ccccc65)CC4)cc3)nc2c1 | active: 27.1 µM
COc1ccc2[nH]cc(CCNC(C)=O)c2c1 | inconclusive: 6.81 µM [cytotoxic, partial curve, poor fit]
COc1ccccc1-c1cccc(-c2c(O)c3cc(C#N)c(Cl)cc3[nH]c2=O)c1 | inactive
O=C(Nc1cccc2c(=O)cc(-c3nn[nH]n3)oc12)c1ccc(OCCCCc2ccccc2)cc1 | inconclusive: 30.4 µM [cytotoxic, single point]
CNC(=O)c1c(-c2ccc(F)cc2)oc2cc(N(CCO)S(C)(=O)=O)c(C3CC3)cc12 | active: 30.4 µM
N=C(N)c1ccc2cc(OC(=O)c3ccc(N=C(N)N)cc3)ccc2c1 | inactive
CN(C(=O)c1ccc(F)cc1C(F)(F)F)C1CCN(c2nnc(-c3ccnn3C)c3ccccc23)CC1 | inconclusive: 0.304 µM [cytotoxic, full curve]
Cc1cc(C(C)(C)C)cc(C)c1CC1=NCCN1 | inconclusive: 42.9 µM [cytotoxic, single point]
CCOc1cc2ncc(C#N)c(Nc3ccc(F)c(Cl)c3)c2cc1NC(=O)C=CCN(C)C | active: 0.341 µM
CCN(CC)CCOc1ccc(Cc2ccccc2)cc1 | inconclusive: 38.6 µM [cytotoxic, single point] and inconclusive: 30.4 µM [cytotoxic, single point]
CS(=O)(=O)Nc1ccc([N+](=O)[O-])cc1Oc1ccccc1 | inconclusive: 34.1 µM [cytotoxic, single point]
C=CC(=O)Nc1cccc(Oc2nc(Nc3ccc(N4CCN(C)CC4)cc3OC)ncc2Cl)c1 | inconclusive: 0.0429 µM [cytotoxic, full curve]
CC(C)OC(=O)OCOP(=O)(CO[C@H](C)Cn1cnc2c(N)ncnc21)OCOC(=O)OC(C)C | inconclusive: 24.1 µM [cytotoxic, single point] and inconclusive: 6.12 µM [cytotoxic, partial curve, poor fit]
Nc1nc(=S)c2[nH]cnc2[nH]1 | active: 6.87 µM and active: 5.41 µM
Cc1c(-c2ccc(O)cc2)n(Cc2ccc(OCCN3CCCCCC3)cc2)c2ccc(O)cc12 | inconclusive: 6.12 µM [cytotoxic, full curve, poor fit]
CN(C)CCC=C1c2ccccc2C=Cc2ccccc21 | inconclusive: 24.1 µM [cytotoxic, partial curve]
Nc1cccc(S(=O)(=O)N2CCCN(S(=O)(=O)c3ccc4c(c3)OCCO4)CC2)c1 | inconclusive: 34.1 µM [cytotoxic, single point]
C[C@]12C=CC(=O)C=C1CC[C@@H]1[C@@H]2[C@@H](O)C[C@@]2(C)[C@@H]1CC[C@]2(O)C(=O)CO | inconclusive: 1.92 µM [cytotoxic, full curve]
CC1=C(C(=O)Nc2cc3cn[nH]c3cc2F)C(c2ccc(C(F)(F)F)cc2)CC(=O)N1 (stereo not drawn) | inconclusive: 15.2 µM [cytotoxic, partial curve]
Nc1ncnc2c1c(-c1cccc(OCc3ccccc3)c1)cn2C1CC(CN2CCC2)C1 (stereo not drawn) | inconclusive: 10.8 µM [cytotoxic, partial curve]
CN(C)CCCC1(c2ccc(F)cc2)OCc2cc(C#N)ccc21 (stereo not drawn) | inconclusive: 38.3 µM [cytotoxic, single point]
